In all, about 81,000 sequences were measured (“one-hybrid fitness for binding parS DNA”: median about -0.17, highest 2% from about 0.51 on). This is one part of the list.
B1: Caulobacter ParB omega fusion; a variant is named by its letters at X, in order, B8GW30 (parent)
chain: MESVVVGEPGMSEGRRGLGRGLSALLGEVDAAPAQAPGEQLGGSREAPIEILQRNPDQPRRTFREEDLEDLSNSIREKGVLQPILVRPSPDTAGEYQIVAGERAWRAAQRAGLKTVPIMVRELDDLAVLEIGIIENVQRADLNVLEEALSYKVLMEKFERTQENIAQTIGKSXSHVANXMRLLXLPDEVQSYLVSGELTAXHARAIAAAADPVALAKQIIEGGLSVRETEALARKAPNLSAGKSKGGRPPRVKDTDTQALESDLSSVLGLDVSIDHRGSTGTLTITYATLEQLDDLCNRLTRGI

Variants of: B1
Test: one-hybrid fitness for binding parS DNA (scaled: cognate 1, non-cognate 0); higher = stronger binding
Settings: with parS DNA site
Outline: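 Fitness here means the log change in variant-to-wild-type read ratio between plasmids sequenced before and after selection. That scale was set so cognate equals 1 and non-cognate equals 0. The selection was a bacterial one-hybrid screen of Caulobacter ParB libraries, four specificity codons randomised, in E. coli USO carrying a HIS3 reporter with the site 19 bp from the promoter, grown 48 hours at 37°C on M9-minus-histidine with 0.1 mM IPTG and 5 mM 3-AT.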

Variant | one-hybrid fitness for binding parS DNA
YTRV | ≤ 0.2
MGCS | ≤ 0.2
SPIT | ≤ 0.2
AHGY | ≤ 0.2
NNSE | ≤ 0.2
VTMF | ≤ 0.2
MPYE | ≤ 0.2
WIAG | ≤ 0.2
LSCS | ≤ 0.2
MRQC | ≤ 0.2
LTTV | ≤ 0.2
PDIG | ≤ 0.2
MPQW | ≤ 0.2
KINY | ≤ 0.2
GSCT | ≤ 0.2
IQCG | ≤ 0.2
PIKR | ≤ 0.2
ATSC | ≤ 0.2
QKLI | ≤ 0.2
GTPA | ≤ 0.2
RSHL | ≤ 0.2
GYWF | ≤ 0.2
TLSM | ≤ 0.2
QGQV | ≤ 0.2
ANWD | ≤ 0.2

Variant | one-hybrid fitness for binding parS DNA
RINP | ≤ 0.2
TTHL | ≤ 0.2
NRWN | ≤ 0.2
LDMG | ≤ 0.2
TRRV | ≤ 0.2
IHGT | ≤ 0.2
KCLG | ≤ 0.2
ESPE | ≤ 0.2
RLPH | ≤ 0.2
QTFV | ≤ 0.2
ETNF | ≤ 0.2
GMIM | ≤ 0.2
RSMA | 0.576
LGTV | ≤ 0.2
RRMM | ≤ 0.2
MVTV | ≤ 0.2
IVDC | ≤ 0.2
IRDS | ≤ 0.2
PGLV | ≤ 0.2
RRWY | 0.374
ATVM | ≤ 0.2
MNLF | ≤ 0.2
GACR | ≤ 0.2
YPQT | ≤ 0.2
KVDR | ≤ 0.2

Variant | one-hybrid fitness for binding parS DNA
QIDI | ≤ 0.2
NKSW | ≤ 0.2
DRSA | ≤ 0.2
RFGF | 0.209
GKKR | ≤ 0.2
TVTF | ≤ 0.2
PALL | ≤ 0.2
NMSG | ≤ 0.2
AEWG | ≤ 0.2
SWNY | ≤ 0.2
VGMM | ≤ 0.2
SWHR | ≤ 0.2
SNRR | ≤ 0.2
HQNP | ≤ 0.2
LVKE | ≤ 0.2
EMRF | ≤ 0.2
IRHA | ≤ 0.2
WNER | ≤ 0.2
HGDA | ≤ 0.2
RCIG | 0.955
VQYC | ≤ 0.2
CPRQ | ≤ 0.2
NEHG | ≤ 0.2
KEVS | ≤ 0.2
IRAH | ≤ 0.2

Variant | one-hybrid fitness for binding parS DNA
PPRV | ≤ 0.2
TPFT | ≤ 0.2
NQPM | ≤ 0.2
RSDK | ≤ 0.2
EPAT | ≤ 0.2
CQTW | ≤ 0.2
QTHM | ≤ 0.2
QDNG | ≤ 0.2
PQDG | ≤ 0.2
QWPW | ≤ 0.2
QSIM | ≤ 0.2
YPAF | ≤ 0.2
ANIP | ≤ 0.2
NGIG | ≤ 0.2
AHPP | ≤ 0.2
DITT | ≤ 0.2
SYRS | ≤ 0.2
ITMS | ≤ 0.2
EFPR | ≤ 0.2
HEHQ | ≤ 0.2
TRQN | ≤ 0.2
YQPS | ≤ 0.2
GHKT | ≤ 0.2
RAIQ | ≤ 0.2
DAQE | ≤ 0.2

Variant | one-hybrid fitness for binding parS DNA
WTRL | ≤ 0.2
CKHC | ≤ 0.2
PESI | ≤ 0.2
SYPN | ≤ 0.2
VCTN | ≤ 0.2
TMNC | ≤ 0.2
GGVG | ≤ 0.2
EQNT | ≤ 0.2
QVNQ | ≤ 0.2
SLCL | ≤ 0.2
KLRS | ≤ 0.2
VLVS | ≤ 0.2
PAAM | ≤ 0.2
MYST | ≤ 0.2
REPQ | ≤ 0.2
HVND | ≤ 0.2
CCFR | ≤ 0.2
EDNV | ≤ 0.2
QWLP | ≤ 0.2
TNMD | ≤ 0.2
RREE | ≤ 0.2
QSQF | ≤ 0.2
IKDS | ≤ 0.2
NLYC | ≤ 0.2
IVCC | ≤ 0.2

Variant | one-hybrid fitness for binding parS DNA
RNID | ≤ 0.2
QPRM | ≤ 0.2
RGYT | 0.475
YARI | ≤ 0.2
IDNL | ≤ 0.2
STAF | ≤ 0.2
DNIT | ≤ 0.2
QRYG | ≤ 0.2
HFVY | ≤ 0.2
GYGF | ≤ 0.2
RPPK | ≤ 0.2
SYTG | ≤ 0.2
HSWL | ≤ 0.2
KTAQ | ≤ 0.2
GGSS | ≤ 0.2
LSGT | ≤ 0.2
QSRL | ≤ 0.2
YLRW | ≤ 0.2
CLWS | ≤ 0.2
PWSV | ≤ 0.2
QVAA | ≤ 0.2
SLFD | ≤ 0.2
DSNR | ≤ 0.2
PEDN | ≤ 0.2
ENFR | ≤ 0.2

Variant | one-hybrid fitness for binding parS DNA
LLFS | ≤ 0.2
TLPE | ≤ 0.2
NITL | ≤ 0.2
CQKC | ≤ 0.2
QLYG | ≤ 0.2
QGYG | ≤ 0.2
PSKK | ≤ 0.2
SPAG | ≤ 0.2
MQVS | ≤ 0.2
RPKS | ≤ 0.2
RQAN | 0.419
VNAT | ≤ 0.2
MHQG | ≤ 0.2
QLVN | ≤ 0.2
ASRA | ≤ 0.2
NIVG | ≤ 0.2
MLCT | ≤ 0.2
ACQK | ≤ 0.2
RDMA | ≤ 0.2
PGTR | ≤ 0.2
SPTR | ≤ 0.2
KTYV | ≤ 0.2
QMHD | ≤ 0.2
QAPF | ≤ 0.2
RLLI | ≤ 0.2

Variant | one-hybrid fitness for binding parS DNA
TMAA | ≤ 0.2
TMRF | ≤ 0.2
SSWH | ≤ 0.2
ESSM | ≤ 0.2
ADLT | ≤ 0.2
GRYT | ≤ 0.2
PSGI | ≤ 0.2
QDAK | ≤ 0.2
CIQL | ≤ 0.2
SKYE | ≤ 0.2
FLCC | ≤ 0.2
YLYF | ≤ 0.2
DGPD | ≤ 0.2
MKDG | ≤ 0.2
VAGT | ≤ 0.2
RRLQ | ≤ 0.2
HKMV | ≤ 0.2
YLAV | ≤ 0.2
RILR | ≤ 0.2
TPRW | ≤ 0.2
